21 molecules from publication PMC6673701, “Structure of Myosin VI/Tom1 complex reveals a cargo recognition mode of Myosin VI for tethering” (Nature Communications, 2019) can be followed below.

The chains behind the UniProt entries cited, without tags or fusion partners. Where a name states a change or a piece, a line headed by the entry shows the natural chain unless it says otherwise. A line that says so, or that is headed by a name, gives the form on record, which may keep a tag or linker. Residues count along the entry.
UniProt Q9UM54: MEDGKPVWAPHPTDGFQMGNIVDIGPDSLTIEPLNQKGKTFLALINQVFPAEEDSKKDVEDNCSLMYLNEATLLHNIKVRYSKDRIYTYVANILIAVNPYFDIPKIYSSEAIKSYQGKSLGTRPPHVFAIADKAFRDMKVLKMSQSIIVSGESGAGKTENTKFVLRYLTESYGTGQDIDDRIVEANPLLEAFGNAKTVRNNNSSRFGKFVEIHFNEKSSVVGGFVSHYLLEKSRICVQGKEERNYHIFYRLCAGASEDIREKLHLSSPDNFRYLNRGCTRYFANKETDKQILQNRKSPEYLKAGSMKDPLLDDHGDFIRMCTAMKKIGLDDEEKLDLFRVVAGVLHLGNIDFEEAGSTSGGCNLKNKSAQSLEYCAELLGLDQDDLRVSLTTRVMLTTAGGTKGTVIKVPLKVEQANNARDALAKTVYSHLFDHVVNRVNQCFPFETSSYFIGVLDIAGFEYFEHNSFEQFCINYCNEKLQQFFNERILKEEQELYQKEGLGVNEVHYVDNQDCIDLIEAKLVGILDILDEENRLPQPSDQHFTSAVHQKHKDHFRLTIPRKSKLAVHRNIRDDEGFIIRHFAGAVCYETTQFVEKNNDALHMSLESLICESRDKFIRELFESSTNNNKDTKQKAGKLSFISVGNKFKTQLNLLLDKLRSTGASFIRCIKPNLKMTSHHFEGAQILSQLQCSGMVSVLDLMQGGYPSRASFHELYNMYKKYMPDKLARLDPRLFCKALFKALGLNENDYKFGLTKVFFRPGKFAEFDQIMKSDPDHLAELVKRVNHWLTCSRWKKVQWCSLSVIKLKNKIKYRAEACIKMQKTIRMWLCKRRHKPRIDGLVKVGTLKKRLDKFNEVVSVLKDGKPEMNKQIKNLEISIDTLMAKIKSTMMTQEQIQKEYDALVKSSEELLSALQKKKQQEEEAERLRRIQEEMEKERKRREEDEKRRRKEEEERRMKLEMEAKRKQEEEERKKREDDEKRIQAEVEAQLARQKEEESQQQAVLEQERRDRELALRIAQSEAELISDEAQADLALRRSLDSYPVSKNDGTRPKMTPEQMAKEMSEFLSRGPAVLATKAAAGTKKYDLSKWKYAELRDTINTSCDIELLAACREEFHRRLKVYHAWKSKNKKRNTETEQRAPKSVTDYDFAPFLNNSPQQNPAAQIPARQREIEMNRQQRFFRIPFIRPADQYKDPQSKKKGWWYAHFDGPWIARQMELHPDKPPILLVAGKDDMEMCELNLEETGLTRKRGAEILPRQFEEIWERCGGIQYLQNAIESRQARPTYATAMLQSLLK
Myosin VI(1060–1285), purified recombinant: residues 1069-1294 of Q9UM54
C-terminal cargo-binding domain (CBD) of Myosin VI (residues 1157–1285): residues 1166-1294 of Q9UM54
GFP-tagged Myosin VI(1060–1285) W1193A (Q9UM54-1, form named): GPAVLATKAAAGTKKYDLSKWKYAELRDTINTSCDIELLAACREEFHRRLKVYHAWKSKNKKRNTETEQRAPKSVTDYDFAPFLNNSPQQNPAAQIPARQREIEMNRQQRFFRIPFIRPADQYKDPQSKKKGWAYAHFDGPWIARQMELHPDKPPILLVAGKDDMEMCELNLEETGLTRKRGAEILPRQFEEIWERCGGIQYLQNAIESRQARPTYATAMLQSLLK
GFP-tagged Myosin VI(1060–1285) E1207R (Q9UM54-1, form named): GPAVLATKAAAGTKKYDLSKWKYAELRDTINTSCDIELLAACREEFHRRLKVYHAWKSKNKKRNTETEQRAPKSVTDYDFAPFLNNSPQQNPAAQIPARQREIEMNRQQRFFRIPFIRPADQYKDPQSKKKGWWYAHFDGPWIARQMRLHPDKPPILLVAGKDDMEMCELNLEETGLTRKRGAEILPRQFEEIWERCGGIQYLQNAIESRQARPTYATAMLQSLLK
Myosin VI globular cargo-binding domain (residues 1032–1285) (Q9UM54-1, form named): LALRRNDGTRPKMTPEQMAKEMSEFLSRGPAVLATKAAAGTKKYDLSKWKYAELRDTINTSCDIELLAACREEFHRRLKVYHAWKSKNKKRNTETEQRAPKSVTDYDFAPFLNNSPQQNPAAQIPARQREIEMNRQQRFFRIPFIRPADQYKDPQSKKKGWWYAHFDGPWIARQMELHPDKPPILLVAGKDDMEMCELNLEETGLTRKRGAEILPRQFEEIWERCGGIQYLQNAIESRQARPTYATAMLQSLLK
C-terminal CBD of Myosin VI 1157–1285(E1207R) (Q9UM54-1, form named): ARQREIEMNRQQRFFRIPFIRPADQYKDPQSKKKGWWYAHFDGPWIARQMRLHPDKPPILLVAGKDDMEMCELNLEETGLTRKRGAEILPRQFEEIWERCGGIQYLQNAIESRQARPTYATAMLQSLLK
C-terminal CBD of Myosin VI 1157–1285(W1193A) (Q9UM54-1, form named): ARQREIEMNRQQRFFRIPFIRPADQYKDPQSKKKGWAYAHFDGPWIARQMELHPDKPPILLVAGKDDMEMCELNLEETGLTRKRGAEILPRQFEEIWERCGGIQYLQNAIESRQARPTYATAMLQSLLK
UniProt Q96CV9: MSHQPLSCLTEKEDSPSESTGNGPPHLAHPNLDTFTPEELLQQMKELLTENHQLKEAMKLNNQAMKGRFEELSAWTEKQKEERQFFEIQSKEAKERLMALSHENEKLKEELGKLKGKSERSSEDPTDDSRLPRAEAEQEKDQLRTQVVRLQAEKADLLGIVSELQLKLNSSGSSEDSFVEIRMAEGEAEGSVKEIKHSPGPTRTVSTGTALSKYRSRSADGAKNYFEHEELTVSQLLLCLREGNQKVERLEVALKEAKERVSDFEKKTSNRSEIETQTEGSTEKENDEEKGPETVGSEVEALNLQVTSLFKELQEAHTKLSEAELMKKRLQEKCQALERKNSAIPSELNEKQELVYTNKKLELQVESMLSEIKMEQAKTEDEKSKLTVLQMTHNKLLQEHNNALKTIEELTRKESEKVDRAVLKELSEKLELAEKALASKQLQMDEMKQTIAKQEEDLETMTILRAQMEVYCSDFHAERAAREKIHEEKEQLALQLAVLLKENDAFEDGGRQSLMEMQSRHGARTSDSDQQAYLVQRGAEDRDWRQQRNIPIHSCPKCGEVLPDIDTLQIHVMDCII
UniProt Q8K3K8, residues 417-512: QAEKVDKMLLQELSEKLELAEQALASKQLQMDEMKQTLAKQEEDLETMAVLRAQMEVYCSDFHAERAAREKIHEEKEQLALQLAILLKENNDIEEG
UniProt Q86VP1, residues 725-789: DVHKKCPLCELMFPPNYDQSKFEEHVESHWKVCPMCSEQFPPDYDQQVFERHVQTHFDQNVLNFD

Read-outs that look alike come from different tables or passages of the source. No constants are given. Whether binding was seen depends on the method and setting. For part of these data: In cells and extracts the contact can be indirect. Some binding calls cover weakened binding; strength is not graded here.

Assay [1] has as its target GFP-tagged Myosin VI(1060–1285) (human) (UniProt Q9UM54). The assay is described as follows: co-IP; HEK293T co-transfected with GFP-tagged Myosin VI(1060–1285) and a Cherry-tagged partner; anti-GFP agarose beads, western blot. Background: A western blot detects proteins with antibodies after separation by electrophoresis.
For assay [2], the target named is GFP-tagged Myosin VI(1060–1285) W1193A (human) (UniProt Q9UM54). The assay is described as above.
Assay [3] deals with GFP-tagged Myosin VI(1060–1285) E1207R (human) (UniProt Q9UM54). The description is as above.
Assay [4] addresses Tom1 R451E mutant of the ternary-complex co-immunoprecipitation (Fig. 5c) (human) (UniProt O60784). The assay is described as follows: co-IP; HEK293T co-transfected with Tom1, Myosin VI(1060–1285) and an autophagy receptor (Fig. 5b, c); anti-GFP or anti-Flag agarose beads, western blot.
Assay [5] deals with Tom1 truncation mutant (residues 1–437) (human) (UniProt O60784). The assay is described as above.
Assay [6] addresses Tom1 wild type of the ternary-complex co-immunoprecipitations (Flag vector) (human) (UniProt O60784). The description is as above.
In assay [7] the target is Tom1 L448E mutant of the ternary-complex co-immunoprecipitation (Fig. 5c) (human) (UniProt O60784). The description is as above.
The target in assay [8] is Myosin VI(1060–1285), purified recombinant (human) (UniProt Q9UM54). The assay is described as follows: SEC; analytical gel filtration coupled with SDS-PAGE, purified proteins, in the presence of K63-linked or M1-linked di-ubiquitin; both purified. (In gel filtration, larger molecules generally elute earlier.)
Assay [9] has as its target Myosin VI globular cargo-binding domain (residues 1032–1285) (human) (UniProt Q9UM54). In words: SEC; analytical gel filtration of purified proteins, Superose 200 increase 10/300 GL, 20 mM Tris-HCl pH 7.9, 100 mM NaCl, 1 mM DTT; both purified.
The target of assay [10] is C-terminal cargo-binding domain (CBD) of Myosin VI (residues 1157–1285) (human) (UniProt Q9UM54). In words: ITC; 25 °C, 20 mM Tris pH 7.9, 100 mM NaCl, 1 mM DTT; 50 µM protein in the cell, 500 µM in the syringe; one-site binding model; both purified.
In assay [11] the target is endogenous Myosin VI (human (endogenous in HEK293T)) (UniProt Q9UM54). The assay is described as follows: co-IP; endogenous proteins of HEK293T lysate; antibody to the tail region of Myosin VI, Protein G agarose; blots for Tom1, TAX1BP1, NDP52, Optineurin.
In assay [12] the target is GFP-tagged Myosin VI(1060–1285) (human) (UniProt Q9UM54). In words: co-IP; HEK293T co-transfected with GFP-tagged Myosin VI(1060–1285) and a Cherry-tagged partner; anti-GFP agarose beads, western blot. This is another data set of the same source.
In assay [13] the target is Tom1(437–463), Myosin VI-binding motif (human) (UniProt O60784). The assay is described as follows: SEC + SEC-MALS + AUC; analytical gel filtration, multi-angle light scattering (20 mM Tris-HCl pH 7.9, 100 mM NaCl, 1 mM DTT) and sedimentation velocity (20 °C) of each protein alone and of the complex; both purified.
For assay [14], the target named is C-terminal CBD of Myosin VI 1157–1285(E1207R) (human) (UniProt Q9UM54). In words: ITC; 25 °C, 20 mM Tris pH 7.9, 100 mM NaCl, 1 mM DTT; 50 µM protein in the cell, 500 µM in the syringe; one-site binding model; both purified.
In assay [15] the target is C-terminal CBD of Myosin VI 1157–1285(W1193A) (human) (UniProt Q9UM54). The assay is described as above.

Turning to “Cherry-tagged Tom1 L448E mutant (from UniProt O60784-2 1-493)”, in [1], the binding result was “no binding”.

For “Cherry-tagged Tom1 R451E mutant (from UniProt O60784-2 1-493)”, the binding result in [1] is reported as “no binding”.

On to “Cherry-tagged Tom1 full length (from UniProt O60784-2 1-493)”, for which the binding result in assay [1] is listed as “binds”; in assay [2], “no binding”; in [3], “no binding”.

In the case of “GFP-tagged Myosin VI(1060–1285) (from UniProt Q9UM54-1 1060-1285) (domain or fragment)”, the binding result in assay [4] is reported as “no binding”; in [5], “no binding”; in [6], “binds”; in assay [7], “no binding”.

As to “Optineurin expressed in transfected cells (pmCherry-C1) (from UniProt Q96CV9 1-577)”, the binding entry in assay [4] is recorded as “no binding”; in assay [5], “no binding”; in assay [7], “no binding”; in assay [1], “binds”.

For the molecule “Optineurin(417–512) (from UniProt Q8K3K8 417-512) (domain or fragment)”, in assay [8], the binding entry was “binds weakly”.

Take “TAX1BP1(725–789) (from UniProt Q86VP1 725-789) (domain or fragment)”: the binding entry in assay [8] was “binds”.

In the case of “Tom1(215–392) (from UniProt O60784-2 215-392) (domain or fragment)”, the binding entry is reported as “no binding” in assay [9] and “no binding (tested: 50 µM in the cell, 500 µM in the syringe)” in assay [10].

Turning to “Tom1(392–437) (from UniProt O60784-2 392-437) (domain or fragment)”, the binding entry in [10] is given as “no binding (tested: 50 µM in the cell, 500 µM in the syringe)”.

As to “Tom1(464–493) (from UniProt O60784-2 464-493) (domain or fragment)”, the binding result in assay [10] was “no binding (tested: 50 µM in the cell, 500 µM in the syringe)”.

For “endogenous Optineurin (from UniProt Q96CV9 1-577)”, the binding entry in assay [11] was “binds”.

As for “endogenous Tom1 (from UniProt O60784 1-492)”, the binding entry in assay [11] was “binds”.

B1: NDP52 expressed in transfected cells (pmCherry-C1) (protein, UniProt Q13137 1-446)
chain: MEETIKDPPTSAVLLDHCHFSQVIFNSVEKFYIPGGDVTCHYTFTQHFIPRRKDWIGIFRVGWKTTREYYTFMWVTLPIDLNNKSAKQQEVQFKAYYLPKDDEYYQFCYVDEDGVVRGASIPFQFRPENEEDILVVTTQGEVEEIEQHNKELCKENQELKDSCISLQKQNSDMQAELQKKQEELETLQSINKKLELKVKEQKDYWETELLQLKEQNQKMSSENEKMGIRVDQLQAQLSTQEKEMEKLVQGDQDKTEQLEQLKKENDHLFLSLTEQRKDQKKLEQTVEQMKQNETTAMKKQQELMDENFDLSKRLSENEIICNALQRQKERLEGENDLLKRENSRLLSYMGLDFNSLPYQVPTSDEGGARQNPGLAYGNPYSGIQESSSPSPLSIKKCPICKADDICDHTLEQQQMQPLCFNCPICDKIFPATEKQIFEDHVFCHSL
Take B1: the binding result is on record as “binds” in [12], “no binding” in assay [4], “no binding” in assay [5] and “no binding” in [7].

B2: endogenous NDP52 (protein, UniProt Q13137 1-446)
chain: MEETIKDPPTSAVLLDHCHFSQVIFNSVEKFYIPGGDVTCHYTFTQHFIPRRKDWIGIFRVGWKTTREYYTFMWVTLPIDLNNKSAKQQEVQFKAYYLPKDDEYYQFCYVDEDGVVRGASIPFQFRPENEEDILVVTTQGEVEEIEQHNKELCKENQELKDSCISLQKQNSDMQAELQKKQEELETLQSINKKLELKVKEQKDYWETELLQLKEQNQKMSSENEKMGIRVDQLQAQLSTQEKEMEKLVQGDQDKTEQLEQLKKENDHLFLSLTEQRKDQKKLEQTVEQMKQNETTAMKKQQELMDENFDLSKRLSENEIICNALQRQKERLEGENDLLKRENSRLLSYMGLDFNSLPYQVPTSDEGGARQNPGLAYGNPYSGIQESSSPSPLSIKKCPICKADDICDHTLEQQQMQPLCFNCPICDKIFPATEKQIFEDHVFCHSL
With B2, in [11], the binding entry is listed as “binds”.

With GVTSEGKFDKFEEERAKAADRLPNLSS (domain or fragment, UniProt O60784-2 437-463) [Tom1 437–463(L448E)], in assay [10], the binding result is “no binding (tested: 50 µM in the cell, 500 µM in the syringe)”.

B3: NDP52(365–446) (domain or fragment, UniProt Q13137 365-446)
chain: EGGARQNPGLAYGNPYSGIQESSSPSPLSIKKCPICKADDICDHTLEQQQMQPLCFNCPICDKIFPATEKQIFEDHVFCHSL
With B3, the binding result in assay [8] is given as “binds”.

On to GVTSEGKFDKFLEEEAKAADRLPNLSS (domain or fragment, UniProt O60784-2 437-463) [Tom1 437–463(R451E)], for which the binding result in assay [10] is on record as “no binding (tested: 50 µM in the cell, 500 µM in the syringe)”.

B4: Tom1(437–463), Myosin VI-binding motif (domain or fragment, human, UniProt O60784-2 437-463, looked up)
chain: GVTSEGKFDKFLEERAKAADRLPNLSS
notes: monomer by light scattering and ultracentrifugation; also called Tom1 MBM; source: E. coli BL21 (DE3), purified (Ni-NTA, SEC); not shown: thioredoxin, N-terminal, cleaved; His6, N-terminal, cleaved
In the case of B4, the binding entry in assay [8] is on record as “binds”; in assay [13], “no binding”; in [14] it was “no binding (tested: 50 µM in the cell, 500 µM in the syringe)”; in [15] it was “no binding (tested: 50 µM in the cell, 500 µM in the syringe)”.

B5: Tom1(392–463) (domain or fragment, human, UniProt O60784-2 392-463, looked up)
chain: TDGLAGALDARQQSTGAIPVTQACLMEDIEQWLSTDVGNDAEEPKGVTSEGKFDKFLEERAKAADRLPNLSS
notes: 15N-labelled in one NMR titration; source: E. coli BL21 (DE3), purified (Ni-NTA, SEC); not shown: thioredoxin, N-terminal, cleaved; His6, N-terminal, cleaved
Consider B5, for which the binding result in [9] is recorded as “binds”.

B6: Tom1(215–493) (domain or fragment, human, UniProt O60784-2 215-493, looked up)
chain: EQIGKLRSELEMVSGNVRVMSEMLTELVPTQAEPADLELLQELNRTCRAMQQRVLELIPQIANEQLTEELLIVNDNLNNVFLRHERFERFRTGQTTKAPSEAEPAADLIDMGPDPAATGNLSSQLAGMNLGSSSVRAGLQSLEASGRLEDEFDMFALTRGSSLADQRKEVKYEAPQATDGLAGALDARQQSTGAIPVTQACLMEDIEQWLSTDVGNDAEEPKGVTSEGKFDKFLEERAKAADRLPNLSSPSAEGPPGPPSGPAPRKKTQEKDDDMLFAL
notes: source: E. coli BL21 (DE3), purified (Ni-NTA, SEC); not shown: thioredoxin, N-terminal, cleaved; His6, N-terminal, cleaved
Turning to B6, the binding result in [9] is given as “binds”.

B7: Tom1(392–493) (domain or fragment, human, UniProt O60784-2 392-493, looked up)
chain: TDGLAGALDARQQSTGAIPVTQACLMEDIEQWLSTDVGNDAEEPKGVTSEGKFDKFLEERAKAADRLPNLSSPSAEGPPGPPSGPAPRKKTQEKDDDMLFAL
notes: as for B5
On to B7, for which the binding result in assay [9] was “binds”.
